The other results are listed elsewhere or left out. The list includes weakly bound sequences.

This assay deals with T1, MBP-FoxP3dN (UniProt Q99JB6).
T1 sequence: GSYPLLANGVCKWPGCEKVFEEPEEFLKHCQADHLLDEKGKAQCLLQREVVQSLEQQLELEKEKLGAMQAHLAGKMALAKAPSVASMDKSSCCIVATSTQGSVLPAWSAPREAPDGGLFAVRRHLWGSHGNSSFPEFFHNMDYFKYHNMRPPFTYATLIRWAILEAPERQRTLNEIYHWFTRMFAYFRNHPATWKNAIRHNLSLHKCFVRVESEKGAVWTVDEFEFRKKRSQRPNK
As to the kind of experiment: PD-seq (MBP pull-down with sequencing). The note with it: 20 mM Tris-HCl pH 7.5, 100 mM NaCl, 1.5 mM MgCl2, 0.4 uM protein, 0.1 uM dsDNA library, 30 min, room temperature, amylose pull-down; high values mean tight binding; double strand, one strand shown.
Regarding “GATGATTGTTCTCCCAGCTGATGAATTTAGGCCCTCGAGTAAACAAATTTTCCTAATCTTTCTGTTCAAGCGCCATCTAC”, the binding signal (RPM ratio (pull-down/input)) was determined as 0.674.

As for “GATGATTGTTCTCCCAGCTGATGAATTATACATGTCGAGTAAACAAATTTTCCTAATCTTTCTGTTCAAGCGCCATCTAC”, the binding signal (RPM ratio (pull-down/input)) is 0.765.

In the case of “GATGATTGTTCTCCCAGCTGATGAATTCAGAAACTCGAGTAAACAAATTTTCCTAATCTTTCTGTTCAAGCGCCATCTAC”, the binding signal (RPM ratio (pull-down/input)) was 0.477.

“GATGATTGTTCTCCCAGCTGATGAATTTTGCCCGTCGAGTAAACAAATTTTCCTAATCTTTCTGTTCAAGCGCCATCTAC”: the binding signal (RPM ratio (pull-down/input)) was 2.4.

Regarding “GATGATTGTTCTCCCAGCTGATGAATTCGTACCGTCGAGTAAACAAATTTTCCTAATCTTTCTGTTCAAGCGCCATCTAC”, the binding signal (RPM ratio (pull-down/input)) is 0.483.

Consider “GATGATTGTTCTCCCAGCTGATGAATTACACTATTCGAGTAAACAAATTTTCCTAATCTTTCTGTTCAAGCGCCATCTAC”, for which the binding signal (RPM ratio (pull-down/input)) is 0.606.

With “GATGATTGTTCTCCCAGCTGATGAATTTCACCCATCGAGTAAACAAATTTTCCTAATCTTTCTGTTCAAGCGCCATCTAC”, the binding signal (RPM ratio (pull-down/input)) stood at 0.324.

Regarding “GATGATTGTTCTCCCAGCTGATGAATTGCGAAACTCGAGTAAACAAATTTTCCTAATCTTTCTGTTCAAGCGCCATCTAC”, the binding signal (RPM ratio (pull-down/input)) was determined as 0.927.

For “GATGATTGTTCTCCCAGCTGATGAATTGCGCGGGTCGAGTAAACAAATTTTCCTAATCTTTCTGTTCAAGCGCCATCTAC”, the binding signal (RPM ratio (pull-down/input)) amounted to 1.11.

Regarding “GATGATTGTTCTCCCAGCTGATGAATTTACGTCCTCGAGTAAACAAATTTTCCTAATCTTTCTGTTCAAGCGCCATCTAC”, the binding signal (RPM ratio (pull-down/input)) was 0.69.

In the case of “GATGATTGTTCTCCCAGCTGATGAATTACTGAATTCGAGTAAACAAATTTTCCTAATCTTTCTGTTCAAGCGCCATCTAC”, the binding signal (RPM ratio (pull-down/input)) stood at 0.586.

For “GATGATTGTTCTCCCAGCTGATGAATTCTAATATTCGAGTAAACAAATTTTCCTAATCTTTCTGTTCAAGCGCCATCTAC”, the binding signal (RPM ratio (pull-down/input)) is 1.35.

For “GATGATTGTTCTCCCAGCTGATGAATTGAGGCTATCGAGTAAACAAATTTTCCTAATCTTTCTGTTCAAGCGCCATCTAC”, the binding signal (RPM ratio (pull-down/input)) turned out to be 1.18.

Regarding “GATGATTGTTCTCCCAGCTGATGAATTTAGTCCATCGAGTAAACAAATTTTCCTAATCTTTCTGTTCAAGCGCCATCTAC”, the binding signal (RPM ratio (pull-down/input)) was 0.461.

With “GATGATTGTTCTCCCAGCTGATGAATTGCATCCCTCGAGTAAACAAATTTTCCTAATCTTTCTGTTCAAGCGCCATCTAC”, the binding signal (RPM ratio (pull-down/input)) was 4.21.

In the case of “GATGATTGTTCTCCCAGCTGATGAATTAACCGTGTCGAGTAAACAAATTTTCCTAATCTTTCTGTTCAAGCGCCATCTAC”, the binding signal (RPM ratio (pull-down/input)) stood at 0.36.

“GATGATTGTTCTCCCAGCTGATGAATTAACGGTGTCGAGTAAACAAATTTTCCTAATCTTTCTGTTCAAGCGCCATCTAC”: the binding signal (RPM ratio (pull-down/input)) is 0.494.

“GATGATTGTTCTCCCAGCTGATGAATTTTGTTTGTCGAGTAAACAAATTTTCCTAATCTTTCTGTTCAAGCGCCATCTAC”: the binding signal (RPM ratio (pull-down/input)) was found to be 7.3.

For “GATGATTGTTCTCCCAGCTGATGAATTAACGGAATCGAGTAAACAAATTTTCCTAATCTTTCTGTTCAAGCGCCATCTAC”, the binding signal (RPM ratio (pull-down/input)) is 0.197.

For “GATGATTGTTCTCCCAGCTGATGAATTCACCTAATCGAGTAAACAAATTTTCCTAATCTTTCTGTTCAAGCGCCATCTAC”, the binding signal (RPM ratio (pull-down/input)) was found to be 0.274.

On to “GATGATTGTTCTCCCAGCTGATGAATTAGGCATCTCGAGTAAACAAATTTTCCTAATCTTTCTGTTCAAGCGCCATCTAC”, for which the binding signal (RPM ratio (pull-down/input)) was 6.82.

On to “GATGATTGTTCTCCCAGCTGATGAATTCATGGTATCGAGTAAACAAATTTTCCTAATCTTTCTGTTCAAGCGCCATCTAC”, for which the binding signal (RPM ratio (pull-down/input)) was found to be 0.752.

Consider “GATGATTGTTCTCCCAGCTGATGAATTATCTACATCGAGTAAACAAATTTTCCTAATCTTTCTGTTCAAGCGCCATCTAC”, for which the binding signal (RPM ratio (pull-down/input)) is 0.49.

“GATGATTGTTCTCCCAGCTGATGAATTGGTTGGGTCGAGTAAACAAATTTTCCTAATCTTTCTGTTCAAGCGCCATCTAC”: the binding signal (RPM ratio (pull-down/input)) is 2.43.

As to “GATGATTGTTCTCCCAGCTGATGAATTTTCTGAGTCGAGTAAACAAATTTTCCTAATCTTTCTGTTCAAGCGCCATCTAC”, the binding signal (RPM ratio (pull-down/input)) is 0.252.

With “GATGATTGTTCTCCCAGCTGATGAATTACACTAGTCGAGTAAACAAATTTTCCTAATCTTTCTGTTCAAGCGCCATCTAC”, the binding signal (RPM ratio (pull-down/input)) worked out at 0.456.

For “GATGATTGTTCTCCCAGCTGATGAATTACGAGTATCGAGTAAACAAATTTTCCTAATCTTTCTGTTCAAGCGCCATCTAC”, the binding signal (RPM ratio (pull-down/input)) was determined as 0.782.

For “GATGATTGTTCTCCCAGCTGATGAATTGAGCTCGTCGAGTAAACAAATTTTCCTAATCTTTCTGTTCAAGCGCCATCTAC”, the binding signal (RPM ratio (pull-down/input)) came to 0.509.

Regarding “GATGATTGTTCTCCCAGCTGATGAATTATTGACTTCGAGTAAACAAATTTTCCTAATCTTTCTGTTCAAGCGCCATCTAC”, the binding signal (RPM ratio (pull-down/input)) worked out at 1.58.

Take “GATGATTGTTCTCCCAGCTGATGAATTCGCTTGCTCGAGTAAACAAATTTTCCTAATCTTTCTGTTCAAGCGCCATCTAC”: the binding signal (RPM ratio (pull-down/input)) is 1.87.

Take “GATGATTGTTCTCCCAGCTGATGAATTCTACGGATCGAGTAAACAAATTTTCCTAATCTTTCTGTTCAAGCGCCATCTAC”: the binding signal (RPM ratio (pull-down/input)) is 0.204.

Take “GATGATTGTTCTCCCAGCTGATGAATTCAACCTTTCGAGTAAACAAATTTTCCTAATCTTTCTGTTCAAGCGCCATCTAC”: the binding signal (RPM ratio (pull-down/input)) amounted to 0.315.

Values taken from paper PMC12820563.
